# Laboratory results as given in PubChem BioAssay AID1347120 (National Center for Advancing Translational Sciences (NCATS), 2019).
# The campaign covered roughly 390,000 compounds. About 930 (0.24%) were called active. Inconclusive means that the source gave no clear call. Such entries were picked first, then a sample of the others. Calls follow the shape of the dose curve; as a rule, active = well fitted activation curve with a large enough effect; inconclusive = small, poorly fitted or top-dose-only effect; inactive = no such curve, though single readings can be large or run the other way. A potency beside an inconclusive call is a rough fit, not a confirmed value.
# Test: qHTS for Suppressors of FUS Proteinopathy: Primary screen using FUS-linked yeast assay; also: nearly all actives have a fitted effect of over 55% in size;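 as to growth rescue (activation): plate controls were DMSO vehicle for no effect and reference control for full effect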
# Conditions: S. cerevisiae FUS-expressing, OD600, 24 h; Potency: growth rescue; growth rescue (activation): at 76.6 µM (top of the series)
# How it was run: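 Restored growth of FUS-toxic S. cerevisiae, read as 600 nm absorbance after 24 h at 30C in galactose medium (starting OD 0.005). Controls CP55940 and DMSO.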
# Potency is read from the fitted curve at half-maximal effect; tags tell the direction and shape of the fitted curve.
Structure (SMILES),growth rescue (activation),Potency
COc1ccc(OC)c(CCNC(=O)CC2Oc3ccc(C)cc3NC2=O)c1 (stereo not drawn),inactive: -5.84%,
C=CCOC(=O)N1CCN(C(=O)c2ccc3nc(C)n(C4CCCC4)c3c2)CC1,inactive: 1.75%,
CCOc1ccc(-n2c(C)nc3cc(C(=O)NCCCN4CCOCC4)ccc32)cc1,inactive: -2.84%,
CC1(C(=O)Nc2cccc3ncccc23)CCN1C(=O)Cc1ccc(-c2ccccc2)cc1 (stereo not drawn),,"inconclusive: 31.6 µM [activator, single point]"
O=C(CC(c1ccccc1)c1cc(Br)ccc1O)NCC1(c2ccccc2)CCCC1 (stereo not drawn),,"inconclusive: 28.2 µM [activator, single point]"
Cc1ccc(-n2nnnc2SCC(=O)Nc2ccc3c(c2)OCCO3)cc1C,inconclusive: 67% [activator],
COc1ccccc1N(Cc1cc2cccc(C)c2[nH]c1=O)C(=O)c1cccc(Cl)c1,inactive: 8.63%,
O=C(NC(=S)Nc1ccccc1N1CCCC1)c1cccc(F)c1,inactive: 2.63%,
CC(=O)Nc1cc(C(=O)NCc2ccc(F)cc2Cl)ccc1Sc1ccc(Cl)cc1,,"inconclusive: 44.7 µM [activator, single point]"
CC(C)Cc1nc(N2CCN(C(=O)c3ccccc3)CC2)c(C#N)c2c1CCC2,,"inconclusive: 31.6 µM [activator, partial curve, poor fit]"
Cc1cc(/C=C(\C#N)C(=O)OCC(=O)N(C)c2c(N)n(Cc3ccccc3)c(=O)[nH]c2=O)c(C)n1CC(C)C,,"inconclusive: 44.7 µM [activator, single point]"
Cc1c(N=Cc2nc3ccccc3n2C)c(=O)n(-c2ccccc2)n1C,inconclusive: 55.8% [activator],
COC(=O)c1sccc1NC(=O)CSc1ccccc1NS(=O)(=O)c1cc(Cl)ccc1Cl,,"inconclusive: 25.1 µM [activator, partial curve, poor fit]"
CN(C(=O)c1cccc(NC(=O)Cc2ccc(NC(=O)C3CCN(C(=O)C4CCCC4)CC3)cc2)c1)C1CCC1,,"inconclusive: 50.1 µM [activator, single point]"
CCOC(=O)CNC(=O)CSc1nnc(-c2ccc(C(C)(C)C)cc2)n1-c1ccc(Cl)cc1,,"inconclusive: 35.5 µM [activator, partial curve, poor fit]"
CCCN(Cc1nnc(-c2ccccc2Cl)o1)C(=O)c1oc2ccccc2c1C,,"inconclusive: 20 µM [activator, partial curve, poor fit]"
Cc1ccc(-c2c3c(=O)n(C)c(=O)n(C)c3c3c(C(F)(F)F)nc4ccccc4n23)cc1,inactive: 10.5%,
COC(=O)c1cc(C(=O)OC)cc(N2C(=O)CC(NNC(=O)c3ccccc3Br)C2=O)c1 (stereo not drawn),,"inconclusive: 20 µM [activator, partial curve, poor fit]"
